Laboratory results from PubChem BioAssay AID485344 (National Center for Advancing Translational Sciences (NCATS), 2010).
Hit rate of the full screen: of about 340,000 compounds, about 6,900 (2%) were called active. Rule as the data show it: active = inhibition above about 30%; inactive = below that, where a call was filed. Only a part is listed here, and it is no random draw. Where no call is shown, the source filed none.
Also: 0% is about no effect.

Each compound was assayed against D(2) dopamine receptor (Homo sapiens) (UniProt P14416) (assay: HTS Assay for Allosteric Antagonists of the Human D2 Dopamine Receptor: Primary Screen for Antagonists). Conditions: HEK293 TREx D2 cells, calcium flux, dopamine EC80; at 10 µM; stronger effect = higher value.
Chain of UniProt P14416 (P14416 whole entry, looked up): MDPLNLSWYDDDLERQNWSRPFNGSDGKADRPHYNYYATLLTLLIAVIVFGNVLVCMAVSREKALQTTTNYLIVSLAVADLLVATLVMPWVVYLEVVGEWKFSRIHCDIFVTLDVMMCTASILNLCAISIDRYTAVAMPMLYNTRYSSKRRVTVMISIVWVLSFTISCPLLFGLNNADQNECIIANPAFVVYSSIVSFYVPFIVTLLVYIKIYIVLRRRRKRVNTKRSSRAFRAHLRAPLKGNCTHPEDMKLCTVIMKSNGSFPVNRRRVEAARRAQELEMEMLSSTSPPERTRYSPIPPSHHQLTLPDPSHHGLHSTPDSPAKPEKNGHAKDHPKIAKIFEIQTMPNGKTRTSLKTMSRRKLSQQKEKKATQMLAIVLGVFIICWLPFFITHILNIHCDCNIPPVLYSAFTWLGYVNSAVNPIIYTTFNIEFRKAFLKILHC
Procedure, shortened: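 Measurement of antagonist activity uses fluorescent calcium dye in inducible HEK293 T-REx D2 cells: 10 s baseline, compound addition with 180 s read, EC80 dopamine addition with a further 180 s read.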
`CCn1c(C)c(C)c2cc(C(=O)NCc3ccc(OC)cc3OC)ccc21` showed an inhibition of -2.42%.
Compound `CCN(CC)S(=O)(=O)c1ccc(NC(=O)c2c(C)oc3ncnc(N4CCOCC4)c23)cc1` has an inhibition of 4.8%.
`CCOc1ccccc1NC(=O)c1c(NCc2cccs2)sc2c1CCCCC2` was tested, and the inhibition was -2.89%.
`C=CCN1C(=O)/C(=C/c2ccc(OC(C)=O)c(OCC)c2[N+](=O)[O-])SC1=S` was tested, and the inhibition was active: 30.3%.
`Cc1ccccc1NC1=NC(=S)N(CC(N)=O)C12CCOC(C)(C)C2` (configuration not stated) was tested, and the inhibition was active: 44.4%.
For `CCOc1ccc(NC(=O)c2c(NC(=O)c3ccccc3F)sc3c2CCC3)cc1`, the inhibition was -12.8%.
`CCOc1cc(/C=C(\C#N)C(=O)Nc2ccc(C)cc2)ccc1OCc1cc(=O)n2nc(CC)sc2n1` was tested, and the inhibition was 0.228%.
In the case of `Cc1ccc(NS(=O)(=O)c2ccc3c(c2)CCC(=O)N3)cc1`, the inhibition is reported as active: 64.5%.
`CC(=O)Nc1ccc(NC(=O)c2cc3sccc3n2Cc2ccc(Cl)cc2)cc1` showed an inhibition of 18.6%.
Compound `COc1cc(NC(=O)Cn2cnc3c2c(=O)n(C)c(=O)n3C)c(OC)cc1Cl` has an inhibition of 12.5%.
`CCOC(=O)c1c(NC(=O)/C(C#N)=C/c2ccccc2)sc2c1CCC2` gave an inhibition of 7.99%.
`Cc1cc(C)cc(NC(=O)Nc2ccccc2OCc2cc(=O)n3ccccc3n2)c1` gave an inhibition of -22.4%.
With `Cc1ccccc1CNC(=O)c1ccc(CSc2nc3cccnc3n2Cc2ccccc2)cc1` the inhibition was -1.72%.
`CCc1c(C)c2ccc(O)c(CN3CCN(c4ccc(OC)cc4)CC3)c2oc1=O` was tested, and the inhibition was 9.13%.
With `CCc1ccc(-n2c(SCc3ccccc3C)nc3[nH]ncc3c2=O)cc1` the inhibition was 1.06%.
`Cc1ccc(-c2nc(CS(=O)(=O)CC(=O)NCc3ccc(Cl)cc3)c(C)o2)cc1` gave an inhibition of 10.9%.
`COC(=O)c1ccc(Cn2c(SCc3ccccc3)nc3ccncc32)cc1` was tested, and the inhibition was 17.7%.
`CCc1ccc(-n2nc(C)c3c(C(=O)Nc4cc(C)c(Cl)cc4OC)cc(C)nc32)cc1` was tested, and the inhibition was -2.82%.
With `CCCN(C(=O)COc1cc(=O)n(CC)c2ccccc12)c1ccc(C(C)C)cc1` the inhibition was -16.3%.
In the case of `CC(C)c1ccc(NC(=O)CCS(=O)(=O)c2cccc3nonc23)cc1`, the inhibition is reported as 2.96%.
`CCc1ccc(-c2nn(CC(=O)NCc3ccccc3)c3c2cnc2ccc(C)cc23)cc1` gave an inhibition of 4.91%.
Work on `O=C(CN1CCSc2ccccc21)N1CCCCC1` yielded an inhibition of -11.2%.
In the case of `Cc1ccc(CCNC(=O)c2ccc(CNS(=O)(=O)c3ccccc3)cc2)cc1`, the inhibition is reported as 15.9%.
`Cc1ccc(CCNC(=O)c2cc(C)nc3c2c(C)nn3-c2ccc(C)cc2)cc1` was tested, and the inhibition was -25.1%.
`O=C(Nc1ccc(C(F)(F)F)cc1)C1CCN(c2cnccn2)CC1` was tested, and the inhibition was -6.21%.
For `COc1cccc(Cn2c(SCC(=O)N(C)c3ccccc3)nc3ccccc32)c1`, the inhibition was 2.22%.
With `COc1ccccc1N1CCN(CCc2n[nH]c(=S)n2-c2ccccc2)CC1` the inhibition was active: 51.6%.
`Cc1ccc(N/C(N)=N/c2nc(C)cc(N3CCCCC3)n2)c(C)c1` was tested, and the inhibition was active: 35.3%.
`COc1cccc2cc(-c3csc(-c4ccc(Cl)cc4)n3)c(=O)oc12` gave an inhibition of -4.85%.
`CCOC(=O)Cn1c(=O)n(-c2ccccc2OC)c2nc(-c3ccccc3F)nc(C(N)=O)c21` showed an inhibition of 3.4%.
For `COc1ccc(CCNC(=O)c2nc(SCc3ccc(C)cc3)ncc2Cl)cc1OC`, the inhibition was -0.305%.
`CCCNC(=O)c1cnc2sc(N3CCCCCC3)nn2c1=O` was tested, and the inhibition was 2.95%.
Compound `CCOC(=O)c1c(NC(=O)c2cc3nc(-c4ccccc4)cc(C(F)(F)F)n3n2)sc2c1CCC(C)C2` (configuration not stated) has an inhibition of 16.9%.
For `Cc1cc(C(=O)Nc2cccc(F)c2)c2c(C)nn(-c3cccc(Cl)c3C)c2n1`, the inhibition was -4.73%.
For `CCOc1ccc(C(=O)Nc2ccccc2OCc2cc(=O)n3ccccc3n2)cc1`, the inhibition was -6.37%.
For `Cc1c(C(=O)N/N=C/c2ccoc2)cccc1[N+](=O)[O-]`, the inhibition was active: 67.4%.
For `COc1ccc(Cc2nc3ccc(C(=O)NCCCN4CCN(C)CC4)cc3o2)cc1`, the inhibition was 23.9%.
With `Cc1ccccc1-c1nc(SCC(=O)NCC2CCCO2)c2c(=O)n(C)c(=O)n(C)c2n1` (configuration not stated) the inhibition was -5.15%.
For `COc1ccc(N2CCN(C(=O)c3sc4nc5n(c(=O)c4c3C)CCC5)CC2)cc1`, the inhibition was -9.55%.
For `COCCNC(=O)c1ccc2c(=O)n(CCOC)c(SCC(=O)c3c[nH]c4ccccc34)nc2c1`, the inhibition was 5.04%.
For `Cc1nc2cc(NC(=O)c3cccc(S(C)(=O)=O)c3)ccc2o1`, the inhibition was active: 33.4%.
`Cc1cccc(CCNC(=O)CCc2c(C)nc3ncnn3c2C)c1` gave an inhibition of -14.8%.
With `COc1cccc(CN2C(=O)C3(SCC(=O)N3c3ccc(C(C)C)cc3)c3ccccc32)c1` (configuration not stated) the inhibition was -4.46%.
With `NC(=O)CSc1nnnn1-c1cccc(O)c1` the inhibition was 0.184%.
Work on `CCc1cccc(NC(=O)c2oc3ccc4c(c3c2C)C(=O)CC(C)(C)O4)c1` yielded an inhibition of 15.3%.
Compound `Cn1c(SCc2ccccc2Cl)nc2c([nH]c3ccccc32)c1=O` has an inhibition of -8.55%.
`Cc1ccc(C(=O)NC(=S)Nc2ccc3[nH]c(=O)[nH]c3c2)cc1` was tested, and the inhibition was active: 46%.
`CCOc1ccc(NS(=O)(=O)c2ccc3[nH]cc(C(=O)N4CCCCCC4)c(=O)c3c2)cc1` showed an inhibition of 8.04%.
In the case of `CCOC(=O)c1ccc(N2C(=O)Cc3cc(OCC)c(OCC)cc3C2c2ccccc2)cc1` (configuration not stated), the inhibition is reported as 4.49%.
With `O=C(c1ccc2c(c1)OCCO2)N(Cc1cccnc1)c1nc2c(F)cc(F)cc2s1` the inhibition was -14.2%.
`O=C(Nc1cccc(F)c1)NC1CCN(Cc2ccccc2)CC1` was tested, and the inhibition was active: 88.6%.
In the case of `COC(=O)c1ccc(Cn2nc(-c3ccc(C)cc3)ccc2=O)cc1`, the inhibition is reported as -6.06%.
In the case of `O=C(COc1ccc(F)cc1)Nc1ccccc1OCc1cc(=O)n2ccccc2n1`, the inhibition is reported as -1.87%.
With `O=C(c1ccco1)N1CCN(CC(O)COc2ccc3oc4ccccc4c3c2)CC1` (configuration not stated) the inhibition was active: 39.9%.
In the case of `CCOC(=O)C1CCCN(C/C=C/c2ccccc2)C1` (configuration not stated), the inhibition is reported as active: 30.5%.
With `CCC1CCc2nc3sc(C(=O)Nc4cccc(C(F)(F)F)c4)c(N)c3cc2C1` (configuration not stated) the inhibition was -1.92%.
Compound `CCc1nn2c(=O)cc(COC(=O)c3ccc(NC(=O)C4CCCCC4)cc3)nc2s1` has an inhibition of 0.197%.
With `COc1ccc(-c2noc(-c3ccc(NC4CCCCC4)c([N+](=O)[O-])c3)n2)cc1` the inhibition was 13.4%.
With `OC(CN1CCN(c2ccccc2)CC1)c1c[nH]c2ccccc12` (configuration not stated) the inhibition was active: 54.2%.
With `CCCc1cc(=O)oc2cc(C)c3c(C(C)(C)C)coc3c12` the inhibition was -0.972%.
In the case of `COc1ccc(S(=O)(=O)Nc2cc3c(cc2N2CCOCC2)n(C)c(=O)n3C)cc1`, the inhibition is reported as 7.98%.
Compound `O=C(CCn1c(=O)c2cccn2c2cccnc21)NCc1ccccc1F` has an inhibition of 19.1%.
